Experimental data taken from PubChem BioAssay AID761 (NMMLSC, 2007).
Among all 190,000 compounds or so, about 400 (0.21%) were called active. Inconclusive results, whose numbers are uncertain, are shown with a selection of clear calls.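 The calls were made as follows: active = percent activity GTP binding at least 20 points away from the 100% baseline, either down as inhibitor or up as activator; inconclusive = compound flagged as likely green fluorescent from well-wide comparison; inactive = the rest.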

Each molecule was assayed against Cell division control protein 42 homolog (Homo sapiens) (UniProt P60953) (assay: modulators of GTP binding to wildtype Cdc42, primary screen, biochemical, multiplex bead flow cytometry, Bodipy-GTP (AID 761;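 also: median bead fluorescence of bound Bodipy-FL-GTP at 100 nM; 0% = excess unlabeled GTP control and 100% = no compound control; below 100% means less GTP binding so inhibitor and above means activator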)). Details: GST-Cdc42 beads, at 10 µM, actives lie on both sides.
UniProt P60953, sequence (P60953 whole entry, looked up): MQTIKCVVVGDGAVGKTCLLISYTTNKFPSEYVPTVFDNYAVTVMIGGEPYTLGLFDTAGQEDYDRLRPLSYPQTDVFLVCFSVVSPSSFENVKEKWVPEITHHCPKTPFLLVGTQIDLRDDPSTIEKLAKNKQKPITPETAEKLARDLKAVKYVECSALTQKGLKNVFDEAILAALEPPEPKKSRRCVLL

| SMILES | percent activity (GTP binding) |
| --- | --- |
| COc1cc2c(cc1O)CC1c3c(cc(O)c(OC)c3-2)CCN1C (centres undefined) | inconclusive: 89% |
| COc1ccc(CNC(C)Cc2cccs2)cc1 (centres undefined) | inactive: 96% |
| CCc1nc2ccccc2c(=O)n1-c1ccccc1[N+](=O)[O-] | inconclusive: 104% |
| Cc1cccnc1-n1c(-c2ccccc2)nc2ccccc2c1=O | inconclusive: 110% |
| O=C(CNS(=O)(=O)c1ccc(Br)s1)N1CCC2(CC1)OCCO2 | inconclusive: 106% |
| CCCCCCN=Cc1c(O)n(C)c(=O)n(C)c1=O | inactive: 102% |
| CC(=NCc1ccc2c(c1)OCO2)c1c(O)n(C)c(=O)n(C)c1=O | inconclusive: 91% |
| CCN(CC)C(=O)c1ccc(NC(=O)c2cccc(F)c2)cc1 | inconclusive: 101% |
| N=c1c2c(n(Cc3ccc(Cl)cc3Cl)c3c1CCC3)CCCC2 | inconclusive: 103% |
| Cc1cc(/C=C2\C(=O)NC(=O)N(c3cccc(F)c3)C2=O)c(C)n1-c1cc(C(=O)O)cc(C(=O)O)c1 | inconclusive: 90% |
| CN(C)C(=O)Oc1ccc(Cl)c2ccccc12 | inconclusive: 104% |
| CN(C)c1ccc(/C=C/C=C2/C(=O)NC(=O)N(c3ccccc3)C2=O)cc1 | active: 74% |
| Cc1cc(/C=C2\C(=O)NC(=O)N(c3ccc(Cl)cc3)C2=O)c(C)n1-c1sc2c(c1C#N)CCCC2 | inactive: 93% |
| CN1CSC(=S)N(C)C1 | inconclusive: 93% |
| Cc1cccc(-n2c(O)c(/C=N/Nc3nc4c(c(=O)n(C)c(=O)n4C)n3C)c(=O)[nH]c2=S)c1 | inconclusive: 93% |
| CSCc1nnc2n1-c1ccc(Cl)cc1C(c1ccccc1)=NC2 | inactive: 97% |
| CCCCn1c(O)c(C(CC)=NCCCN(C)C)c(=O)[nH]c1=O | inconclusive: 104% |
| O=c1[nH]c(O)c(N=Nc2cc(C(F)(F)F)ccc2Cl)c(=O)[nH]1 | inconclusive: 92% |
| CC(C)c1ccc(N2C(=O)NC(=O)/C(=C\c3cnc(-c4ccccc4)nc3)C2=O)cc1 | inconclusive: 91% |
| COc1cc(/C=C/C(=O)c2c(O)n(CCc3ccccc3)c(=O)[nH]c2=O)ccc1O | inactive: 96% |
| O=c1cccc2n1CC1CC2CN(S(=O)(=O)c2ccccc2)C1 (centres undefined) | inconclusive: 107% |
| Cc1cccc(-n2c(O)c(C=Nc3ccc(Br)cn3)c(=O)[nH]c2=O)c1 | inactive: 98% |
| Cc1c(C=O)c2ccccc2n1Cc1ccc(F)cc1 | inconclusive: 96% |
| COc1ccc(CCNCc2ccccn2)cc1OC | inconclusive: 107% |

| SMILES | percent activity (GTP binding) |
| --- | --- |
| COc1cccc(-n2c(O)c(C=NCCN3CCOCC3)c(=O)[nH]c2=O)c1 | inconclusive: 106% |
| Cc1ccc(C(=O)n2cc(CCN3CCS(=O)(=O)CC3)c3ccccc32)cc1 | inconclusive: 98% |
| CC(C)Sc1nnc([C@@H](N)Cc2c[nH]c3ccccc23)o1 | inconclusive: 95% |
| O=C(C1CC(=O)N(C2CCCC2)C1)N1CCC2(CC1)OCCO2 (centres undefined) | inconclusive: 105% |
| CCOc1ccc(N2C(=O)/C(=C\c3cccs3)C(=O)NC2=S)cc1 | inconclusive: 93% |
| CSc1ncc(Cl)c(C(=O)O)n1 (tested in a mixture with another compound) | inactive: 104% |
| O=C1CN=C(c2ccccc2)c2cc(Br)ccc2N1Cc1cc(=O)n2ccccc2n1 | inconclusive: 153% |
| O=C(CSc1ccccc1)N1CCC2(CC1)OCCO2 | inconclusive: 106% |
| CCC1(c2ccccc2)C(=O)N(C)C(=O)N(C)C1=O | inconclusive: 93% |
| CCCCn1c(O)c(C=NCCN2CCCCC2)c(=O)[nH]c1=O | inactive: 103% |
| Nc1ccc(C2(c3ccc(N)cc3)CN3CCC2CC3)cc1 | inconclusive: 106% |
| C/C(=N\N1CCN(C)CC1)c1c(O)[nH]c(=O)[nH]c1=O | inactive: 99% |
| O=c1[nH]c(=O)n(Cc2ccccc2Cl)c(O)c1/C=C1/C=CC=N1 | inactive: 86% |
| CC(Oc1ccc(-c2ccccc2)cc1)C(=O)O (centres undefined) | active: 161% [activator] |
| Cc1nn(Cc2ccccc2)c(Cl)c1C(=O)O | inconclusive: 121% |
| Cc1ccc(-c2nc3ccccc3c(=O)n2-c2cc(C)ccn2)cc1 | inconclusive: 98% |
| C=Cn1ccnc1P(=S)(c1nccn1C=C)C1CCCCC1 | inconclusive: 92% |
| Cc1nnc(SCc2nc3ccccc3c(=O)n2-c2ccccc2Cl)n1N | inconclusive: 109% |
| Nc1ccc(Br)cc1C(=O)c1ccccc1 | inconclusive: 95% |
| CC(C)N1C(=O)CCC1C(=O)N1CCC2(CC1)OCCO2 (centres undefined) | inconclusive: 94% |
| CC(C)n1c(=O)c(C=Nc2ccc(F)cc2)c(O)n(Cc2ccco2)c1=O | inactive: 100% |
| Cc1nn(Cc2ccccc2Cl)c(C)c1C(=O)NC1CCCc2ccccc21 (centres undefined) | inactive: 98% |
| O=C(c1ccco1)c1cn(Cc2ccc(Cl)cc2)c2ccccc12 | inconclusive: 99% |
| COc1cc2c(cc1OC)C(C(=O)N1CCC3(CC1)OCCO3)C(c1ccccc1F)N(C)C2=O (centres undefined) | inconclusive: 105% |

| SMILES | percent activity (GTP binding) |
| --- | --- |
| Cc1sc2ncn(CC(=O)N3CCC4(CC3)OCCO4)c(=O)c2c1C | inconclusive: 106% |
| C=CCN1C(=O)/C(=C/c2ccc3c(c2)CCCN3CCC)C(=O)NC1=S | inconclusive: 92% |
| CSc1ncc(/C=C2/C(=O)NC(=O)N(c3ccc(Cl)cc3)C2=O)cn1 | inactive: 101% |
| Nc1c(C(=O)NCc2ccco2)c2nc3ccccc3nc2n1CCN1CCCCC1 | inconclusive: 91% |
| COc1ccc(OC)c(/C=N/OC(=O)Nc2ccc(Cl)cc2)c1 | inactive: 96% |
| COc1ccc(-c2cc(=NCCCCCC(=O)O)c3cc(C)ccc3o2)cc1 | active: 69% |
| CN1CC=C(c2c[nH]c3ccccc23)CC1 | inconclusive: 104% |
| CC(=NCc1ccc(F)cc1)c1c(O)n(C)c(=O)n(C)c1=O | inconclusive: 107% |
| Cc1nn(Cc2ccccc2)c(C)c1C(=O)OCC(=O)Nc1cccc(S(N)(=O)=O)c1 | inconclusive: 97% |
| c1ccc2oc(N3CCNCC3)nc2c1 | inconclusive: 108% |
| O=C(COc1ccc(Br)cc1)N1CCN(C2CCCC2)CC1 | inconclusive: 105% |
| COc1cc(C(=S)N2CCOCC2)cc(OC)c1OC(=O)Cc1ccccc1 | inconclusive: 95% |
| Cc1ccc(NP(=O)(Oc2ccccc2F)Oc2ccccc2F)cc1 | inconclusive: 107% |
| O=C1NC(=S)N(Cc2ccco2)C(=O)/C1=C\c1cccs1 | inconclusive: 74% |
| COc1ccc(-c2cc(=NCCC(=O)O)c3cc(C)ccc3o2)cc1 | inconclusive: 85% |
| Cc1ccccc1NC1(C#N)CCCCC1 | inconclusive: 91% |
| COc1cc2c(C(=O)O)c(C)n(C)c2cc1Br | inconclusive: 91% |
| O=P(Nc1cccnc1)(Oc1ccccc1Cl)Oc1ccccc1Cl | inconclusive: 96% |
| CCCCCCN1CCN(c2ccc(Cl)cc2)CC1 | inconclusive: 95% |
| Cc1ccc(-n2c(O)c(C=NC3CCCC3)c(=O)[nH]c2=O)c(C)c1 | inconclusive: 105% |
| CC(=O)C1C(=O)NC23CCCCC2C1c1ccccc1O3 (centres undefined) | inconclusive: 101% |
| Cc1nn(Cc2ccccc2Cl)c(Cl)c1C(=O)O | inconclusive: 95% |
| CCOC(=O)c1c(NC(=O)c2c(N)n(CCCOC)c3nc4ccccc4nc23)sc2c1CCCC2 | inconclusive: 72% |
| CCn1nc(/C=C/c2ccccc2)nc2c(=O)n(C)c(=O)nc1-2 | active: 76% |

| SMILES | percent activity (GTP binding) |
| --- | --- |
| CCCC(=O)NC(Oc1ccc(C(C)=O)cc1)C(Cl)(Cl)Cl (centres undefined) | inactive: 96% |
| Cc1nc2cc(C(=O)N3CCC4(CC3)OCCO4)ccc2n1-c1cccc(F)c1 | inconclusive: 94% |
| Cc1cc(C)c(C2=NOC(O)(C(F)(F)F)C2)c(=O)[nH]1 (centres undefined) | inconclusive: 107% |
| CCC(C)N1Cc2ccccc2C1=N (centres undefined) | inconclusive: 112% |
| Cc1ccc(CCN2CC(C(=O)N3CCC4(CC3)OCCO4)CC2=O)cc1 (centres undefined) | inconclusive: 95% |
| COc1ccccc1N1CCN(Cc2cccc(OC)c2O)CC1 | inconclusive: 108% |
| O=c1c2ccccc2ncn1-c1ccc([N+](=O)[O-])c(C(F)(F)F)c1 | inconclusive: 103% |
| CNCCc1nc(N)n[nH]1 | inconclusive: 106% |
| CC(C)CN1CCN(Cc2cccc3c2OCO3)CC1CCO (centres undefined) | inactive: 101% |
| CC(C)(C)c1ccc(C(=O)C2CCCN(C3CCC3)C2)cc1 (centres undefined) | inactive: 98% |
| Cc1sc(-n2c(C)cc(C=C3C(=O)NC(=O)NC3=O)c2C)c(C#N)c1C | inactive: 81% |
| CCCSP1(=S)NCCCO1 (centres undefined) | inconclusive: 102% |
| O=C1NC(=O)N(CCNc2ncc(C(F)(F)F)cc2Cl)C(=O)C1Cc1ccc(Cl)cc1 (centres undefined) | inconclusive: 93% |
| CCCCN1C(=O)/C(=C\c2ccco2)C(=O)N(CCc2ccccc2)C1=O | inconclusive: 81% |
| O=c1[nH]c(=S)[nH]c(O)c1N=Nc1ccc2c(c1)OCO2 | inactive: 91% |
| N=Cc1c(O)n(-c2cccc(Cl)c2)c(=O)[nH]c1=O | inconclusive: 105% |
| CSc1nnc([C@@H](N)Cc2c[nH]c3ccccc23)o1 | inconclusive: 98% |
| CCCCCCN=C(CC)c1c(O)n(CCCC)c(=O)[nH]c1=O | inconclusive: 103% |
| O=C1NC(=O)C(=Cc2cc(Cl)ccc2OCc2ccc(C(=O)O)cc2)C(=O)N1 | inconclusive: 85% |
| O=C(NC(C(Cl)Cl)N1CCOCC1)c1ccccc1 (centres undefined) | inactive: 101% |
| O=c1[nH]c(=S)[nH]c(O)c1N=Nc1cc2c(cc1[N+](=O)[O-])OCO2 | active: 79% |
| Cc1ccc(-n2c(O)c(/C=N/c3ncc(Br)cc3Br)c(=O)[nH]c2=O)cc1 | inactive: 100% |
